Assay results published in PubChem BioAssay AID2147 (National Center for Advancing Translational Sciences (NCATS), 2009).
Hit rate of the full screen: of about 230,000 compounds, about 3,600 (1.6%) were called active. Inconclusive means that the source gave no clear call. Such entries were picked first, then a sample of the others. Calls follow the shape of the dose curve; as a rule, active = well fitted inhibition curve with a large enough effect (not every such curve was filed as active); inconclusive = small, poorly fitted or top-dose-only effect, or another doubt; inactive = no such curve, though single readings can be large or run the other way. A potency beside an inconclusive call is a rough fit, not a confirmed value.

Each molecule was assayed against Lysine-specific demethylase 4E (Homo sapiens) (UniProt B2RXH2) (assay: qHTS Assay for Inhibitors of Human Jumonji Domain Containing 2E (JMJD2E)). Conditions: JMJD2E catalytic domain, FDH-coupled NADH fluorescence (FDH is formaldehyde dehydrogenase); series mostly up to 57.1 µM.
Also: nearly all actives have a fitted effect of over 50% in size.
Potency is read from the fitted curve at half-maximal effect; tags tell the direction and shape of the fitted curve.

UniProt B2RXH2, sequence (B2RXH2 whole entry, looked up, the tested form may be a part): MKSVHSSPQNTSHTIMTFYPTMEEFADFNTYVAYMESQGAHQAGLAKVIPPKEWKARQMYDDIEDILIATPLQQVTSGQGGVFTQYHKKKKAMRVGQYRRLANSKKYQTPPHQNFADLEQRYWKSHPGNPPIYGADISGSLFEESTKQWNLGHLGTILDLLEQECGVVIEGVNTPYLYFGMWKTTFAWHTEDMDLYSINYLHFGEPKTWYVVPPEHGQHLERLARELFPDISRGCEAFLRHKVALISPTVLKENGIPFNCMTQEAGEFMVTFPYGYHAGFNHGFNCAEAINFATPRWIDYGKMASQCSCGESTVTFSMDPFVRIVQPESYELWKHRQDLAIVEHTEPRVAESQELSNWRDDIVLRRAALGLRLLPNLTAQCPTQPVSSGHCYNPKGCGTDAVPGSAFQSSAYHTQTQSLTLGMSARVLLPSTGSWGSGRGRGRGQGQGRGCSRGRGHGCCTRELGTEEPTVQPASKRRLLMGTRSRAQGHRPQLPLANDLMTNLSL

SMILES	Potency
COc1cccc(-c2cnc(OC(C)(C)C)nc2OC(C)(C)C)c1	inconclusive: 35.5 µM [inhibitor, single point]
CCSc1nnc(NC(=O)c2ccc(C)cc2)s1	inconclusive: 39.8 µM [inhibitor, single point]
CCCC(=O)Nc1cc(-c2cn3cccnc3n2)ccc1OC	inconclusive: 35.5 µM [inhibitor, single point]
Cc1ccsc1C(=O)OCC(=O)NCc1ccc2c(c1)OCO2	inactive
COc1ccc(C(=O)C2CCCN(C(=O)c3cccs3)C2)cc1F (stereo not given)	inactive
COc1ccc(N2CCN(C(CNC(=O)C(=O)NCCCn3ccnc3)c3cccnc3)CC2)cc1 (stereo not given)	inactive
O=C(Nc1ccc(F)cc1F)NC1CC1	inactive
Clc1ccc(-c2nnc(-c3ccc(Br)cc3)c(N3CCSCC3)n2)cc1	inactive
CN(C(=S)NCCN1CCOCC1)C(c1ccccc1)c1ccccc1	inconclusive: 39.8 µM [inhibitor, single point]
O=C(COC(=O)Cc1ccccc1F)Nc1cccc(S(=O)(=O)NC2=NCCCCC2)c1	inactive
COC(=O)c1sc(NC(=O)COc2ccccc2)nc1C	inactive
CC(C)(C)n1nnnc1C(c1ccncc1)N1CCN(c2ccc(O)cc2)CC1 (stereo not given)	inconclusive: 22.4 µM [inhibitor, single point]
CN1C2C=C3C(C#N)=C(N)C(C#N)(C#N)[C@H](c4c(F)cccc4F)[C@H]3C1CC2 (stereo not given in full)	inconclusive: 31.6 µM [inhibitor, single point]
CCn1c2ccccc2c2cc(/C=N/n3cn[nH]c3=S)ccc21	inconclusive: 39.8 µM [inhibitor, single point]
O=C(c1ccc(O)cc1)c1ccc(Cl)cc1	inactive
Cc1ncn2cc(-c3ccc(Cl)cc3Cl)[nH]c(=O)c12	inconclusive: 39.8 µM [inhibitor, single point]
COC(=O)Cc1c(C)nc2nc(NCc3c(F)cccc3Cl)[nH]n2c1=O	inconclusive: 28.2 µM [inhibitor, single point]
COc1ccccc1N1C(=O)C2C(c3ccccc3F)NN(C(=O)c3ccc(C)cc3)C2C1=O (stereo not given)	inactive
CC(=O)N1CCN2C(=O)C1CCCC(=O)c1cc(C(C)C)ccc12 (stereo not given)	inconclusive: 22.4 µM [inhibitor, single point]
O=C(Cn1c(=O)oc2ccccc21)Nc1ccc2c(c1)OCCO2	inconclusive: 39.8 µM [inhibitor, single point]
COc1ccc(C(=O)Nc2ccc3nc(N4CCCCC4)cc(C)c3c2)c(OC)c1	inconclusive: 2.24 µM [inhibitor, full curve, poor fit]
O=C(O)C1Cc2c([nH]c3ccccc23)C(c2ccc3c(c2)OCO3)N1 (stereo not given)	inconclusive: 39.8 µM [inhibitor, single point]
COCCNC(=O)CCc1c(C)nc2nc(-c3cc(OC)cc(OC)c3)nn2c1C	inactive
CCN=C1S/C(=C\c2ccc(OCC)c(OC)c2)C(=O)N1CC	inconclusive: 39.8 µM [inhibitor, single point]

SMILES	Potency
CC1=CC2(C#N)C3(N=C(N)C2(C#N)C(c2ccccc2)N1)OCCO3 (stereo not given)	inconclusive: 39.8 µM [inhibitor, single point]
COc1ccc(S(=O)(=O)n2nc(OC(=O)c3c(-c4ccccc4Cl)noc3C)cc2N)cc1	inactive
NC(=O)c1cc2nc(-c3ccco3)cc(C(F)(F)F)n2n1	inconclusive: 31.6 µM [inhibitor, partial curve]
COc1ccc(CNC(=O)C/C(C)=N/NC(=O)COc2ccc(Br)cc2)cc1	inactive
CCOC(=O)CSc1nc(N2CCOCC2)c2c(c1C#N)CC(C)(C)N(C)C2	inconclusive: 22.4 µM [inhibitor, single point]
O=C(O)c1ccc(Cn2nnc3sc4c(c3c2=O)CCCC4)cc1	inconclusive: 31.6 µM [inhibitor, single point]
C(=N\n1cnnc1)/c1ccc2c(c1)OCCO2	inconclusive: 28.2 µM [inhibitor, partial curve]
O=C(N/N=C/c1cc([N+](=O)[O-])cc([N+](=O)[O-])c1O)/C(=C\c1cccs1)NC(=O)c1ccccc1	inconclusive: 35.5 µM [inhibitor, single point]
CCc1ccc(/C=C2\Oc3c(ccc(O)c3CN3CCN(CCO)CC3)C2=O)cc1	inconclusive: 31.6 µM [inhibitor, single point]
O=C(NCc1ccccn1)c1ccc(=O)oc1	inconclusive: 22.4 µM [inhibitor, partial curve]
CC(C)C(Nc1ccc(S(=O)(=O)N2CCOCC2)cc1[N+](=O)[O-])C(=O)O (stereo not given)	inactive
O=C1CCCc2c1cc(C(=O)NCc1ccco1)c(=O)n2-c1ccc(Cl)cc1	inconclusive: 35.5 µM [inhibitor, single point]
CCOC(=O)CN(C)C(=O)CCc1nnc(-c2ccsc2)o1	inconclusive: 35.5 µM [inhibitor, single point]
C#CCOc1ccc(Cl)cc1/C=N/O	inactive
O=C(NC1(C(F)(F)F)Oc2ccccc2O1)N1CCCC1	inconclusive: 20 µM [inhibitor, partial curve]
CCS(=O)(=O)c1ccc(O)c(NC(=O)Nc2cccc3ccccc23)c1	inconclusive: 39.8 µM [inhibitor, single point]
c1csc(CNc2nc(-c3cccs3)nc3ccccc23)c1	inconclusive: 31.6 µM [inhibitor, partial curve]
CCOC(=O)c1cc(-c2ccc3c(c2)OCCO3)nc2c1c(C)nn2CCC#N	inconclusive: 28.2 µM [inhibitor, partial curve]
Cc1ccc(-c2cc(C(F)F)n3ncc(C(=O)N4CCN5CCCC5C4)c3n2)cc1 (stereo not given)	inconclusive: 22.4 µM [inhibitor, partial curve]
CC(C)(C)c1cc(NCCCn2ccnc2)n2ncc(-c3ccccc3)c2n1	inconclusive: 28.2 µM [inhibitor, partial curve]
CS(=O)(=O)c1ccc2nc(NC(=O)Oc3ccccc3)sc2c1	inactive
Cc1ccc(C(=O)Nc2ccc([N+](=O)[O-])cn2)o1	inconclusive: 39.8 µM [inhibitor, single point]
COc1ccc(-c2[nH]ncc2/C=N\NC(=O)c2ccc(C(C)(C)C)cc2)cc1OC	inconclusive: 35.5 µM [inhibitor, single point]
COc1ccc(CCNc2ccc(N3C(=O)CC(C)C3=O)cc2[N+](=O)[O-])cc1 (stereo not given)	inactive

SMILES	Potency
CCCCCC(=O)Nc1c(-c2ccc(OC)cc2)c(=O)c2ccccc2n1C	inconclusive: 14.1 µM [inhibitor, partial curve]
Cc1nc(NC(=O)c2ccc(Cl)cc2)sc1-c1csc(Nc2cccc(F)c2)n1	inconclusive: 35.5 µM [inhibitor, single point]
CCOC(=O)c1c(N)sc2c1CCSC2	inconclusive: 35.5 µM [inhibitor, single point]
Cc1nc2cc3nc(C(F)(F)F)[nH]c3cc2[nH]1	inconclusive: 31.6 µM [inhibitor, single point]
Cc1cc(C(=O)CSc2nc3ccccc3c(=O)n2C)c(C)n1CC1CCCO1 (stereo not given)	inactive
CCOC(=O)C1=C(c2ccc(OC)cc2)C(=O)c2ccccc2C1=O	inconclusive: 0.501 µM [inhibitor, full curve]
c1ccc(COC2CCCN(Cc3nc(Cc4ccccc4)no3)C2)cc1 (stereo not given)	inactive
COc1cccc(F)c1C(=O)NC(=O)Nc1ccc2nc(C)oc2c1	inconclusive: 8.91 µM [inhibitor, partial curve]
Cc1cc(C)n2nc3nc4c(cc3c2n1)CCCC4	inconclusive: 28.2 µM [inhibitor, partial curve]
O=C(Nc1ccc2c(c1)Cc1ccccc1-2)c1cccnc1	inconclusive: 35.5 µM [inhibitor, single point]
COc1ccc(-c2nc(Cn3c(SCc4ccc(C)cc4)nc4ccncc43)c(C)o2)cc1OC	inconclusive: 5.01 µM [inhibitor, partial curve]
Cc1ccccc1N(CC(=O)N1CCOCC1)S(C)(=O)=O	inconclusive: 35.5 µM [inhibitor, single point]
Cc1ccc(C(=O)Oc2oc(-c3ccccc3)nc2C=Nc2ccc(N(C)C)cc2)cc1	inactive
CCC(C)NC(=O)COC(=O)c1ccc(Cl)cc1O (stereo not given)	inconclusive: 35.5 µM [inhibitor, single point]
Cc1cc2nc(SCC(=O)O)nc(C)c2cc1C	inconclusive: 31.6 µM [inhibitor, single point]
Cc1ccc(-c2ccc(=O)n(CC(=O)NCCCN3CCCCC3C)n2)cc1 (stereo not given)	inconclusive: 22.4 µM [inhibitor, single point]
CC(C)C1C2=C(CC(C)(C)CC2=O)ON1c1ccccc1 (stereo not given)	inconclusive: 35.5 µM [inhibitor, partial curve]
CCC(C)C(=O)Nc1nnc(-c2cccs2)s1 (stereo not given)	inconclusive: 28.2 µM [inhibitor, partial curve]
Nc1cc(Cl)ccc1N1CCOCC1	inactive
Cc1ccc(-c2cc(C(=O)NCc3ccco3)c3ccccc3n2)s1	inconclusive: 31.6 µM [inhibitor, partial curve]
CN(C)S(=O)(=O)Oc1ccccc1C(=O)Nc1ccccc1Cl	inconclusive: 0.0079 µM [inhibitor, full curve, poor fit]
Cc1sc2ncnc(NCCN3CCOCC3)c2c1C	inconclusive: 28.2 µM [inhibitor, single point]
